94 molecules from PubChem BioAssay AID1159614 (National Center for Advancing Translational Sciences (NCATS), 2016) can be followed below.

The structures appear in SMILES notation. About 65 (0.1%) of roughly 45,000 compounds were called active. Calls follow the shape of the dose curve; as a rule, active = well fitted activation curve with a large enough effect; inconclusive = small, poorly fitted or top-dose-only effect; inactive = no such curve, though single readings can be large or run the other way. Some of the results follow.

In this assay the target is Galactocerebrosidase (Homo sapiens) (UniProt P54803). Briefly: A Novel Cell-Based Assay to Identify Small Molecules for B -Galactocerebrosidase. Also: 0% is about no effect; nearly all actives have a fitted effect of over 65% in size. Conditions: 145M-Twi-hGALC-G270D cells (Twitcher mouse brain line with human GALC G270D), HMU-beta-Gal fluorescence, 48 h; series mostly up to 57.5 µM; activation: at the top concentration. The method in brief: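 Live 145M-Twi cells (Twitcher mouse brain-derived, GALC-null) stably expressing human GALC-G270D, with a wild-type GALC line, were compound-treated. Residual GALC activity was then read as fluorescence from 0.1 mM final HMU-β-gal at pH 5.2; higher signal means activation.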
Chain of UniProt P54803 (P54803 whole entry, looked up): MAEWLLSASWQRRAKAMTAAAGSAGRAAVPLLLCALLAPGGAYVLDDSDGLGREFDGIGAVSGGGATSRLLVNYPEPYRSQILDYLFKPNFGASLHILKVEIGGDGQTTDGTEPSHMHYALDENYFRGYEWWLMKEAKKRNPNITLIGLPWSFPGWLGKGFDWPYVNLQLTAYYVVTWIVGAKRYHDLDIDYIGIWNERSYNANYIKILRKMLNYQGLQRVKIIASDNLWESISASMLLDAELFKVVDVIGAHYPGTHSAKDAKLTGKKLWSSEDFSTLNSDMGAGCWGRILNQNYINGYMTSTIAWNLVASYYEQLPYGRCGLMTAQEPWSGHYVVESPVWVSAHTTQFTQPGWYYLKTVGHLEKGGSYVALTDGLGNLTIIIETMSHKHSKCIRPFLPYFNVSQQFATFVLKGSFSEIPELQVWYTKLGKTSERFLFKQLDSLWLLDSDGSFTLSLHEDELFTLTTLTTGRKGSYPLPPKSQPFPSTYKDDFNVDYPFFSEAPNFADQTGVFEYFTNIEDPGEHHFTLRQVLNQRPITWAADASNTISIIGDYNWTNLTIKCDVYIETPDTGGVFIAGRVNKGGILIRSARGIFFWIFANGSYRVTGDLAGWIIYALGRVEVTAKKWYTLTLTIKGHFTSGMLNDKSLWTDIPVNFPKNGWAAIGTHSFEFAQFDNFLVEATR
On to `Cc1ccc2c(CC(=O)Nc3ccc(S(=O)(=O)N4CCCCC4)cc3)coc2c1`, for which the “activation” value is inactive: -14.6%. Consider `Cc1ccc(NC(=O)c2cc(-c3ccc(Br)s3)nc3ccccc23)cc1F`, for which the “activation” value was inactive: -6.48%. The result for `Cc1cc(C)c2c(=O)nc(SCc3ccccc3C)n(C3CC3)c2n1` reads inactive: -10.3%; that for `Nc1ccc(S(N)(=O)=O)cc1`, inactive: -11.4%. Under `CCOc1ccccc1N(C)C(=O)C1CCCN(c2ncnc3c2nc2n3CCCCC2)C1` (centres undefined) stands inactive: -21.7%. The result for `Cc1ccc(-n2ncc3c(Nc4cccc(C)c4C)ncnc32)cc1` reads inactive: -18%. For `CCOc1ccc(CNC(=O)Cn2cc3c(n2)-c2c(oc(C(=O)N4CCOCC4)c2C)CC3)cc1`, the “activation” value was inactive: 5.01%. Under `COc1ccccc1N1CCN(CCCNC(=O)c2cnn(-c3cccc(Cl)c3)c2C2CCN(C(=O)OC(C)(C)C)CC2)CC1` stands inactive: -21.4%. The result for `Cc1ccc(CN2C(=O)C3(c4ccccc42)N(c2cccc(F)c2)C(=O)CS3(=O)=O)cc1` (centres undefined) reads inactive: -12.8%; that for `CCN1CCC[C@H]1CNC(=O)c1cc(S(N)(=O)=O)ccc1OC`, inactive: -6.79%.

As for `Cc1ccc(OCc2ccc(-c3nc(C#N)c(NCc4cccnc4)o3)o2)cc1`, the “activation” value was inactive: -4.51%. In the case of `CCCCN(CC)CCNC(=O)c1cn(C)c(=O)c2c1c1ccccc1n2C`, the “activation” value was inactive: -7.16%. In the case of `CCc1cccc(-n2nnc(-c3nsc(NC(=O)c4cccs4)n3)c2C)c1`, the “activation” value is inactive: -15.7%. Under `CC(=O)Nc1ccc2nc(-c3cc(C)ccc3C)[nH]c2c1` stands inactive: -16.7%.

As for `CCOC(=O)c1c(C)c(-c2ccccc2)n(CC(=O)Nc2cc(C)ccc2OC)c1C`, the “activation” value was inactive: -8.94%. The result for `Cc1ccccc1CN1CCC(CNc2ncnc3onc(-c4ccc(F)cc4)c23)CC1` reads inactive: 2.16%. The result for `COc1cc(NC(=O)NC(C)c2c(-n3cccc3)sc3c2CCCC3)cc(OC)c1OC` (centres undefined) reads inactive: -17.8%; that for `CCOC(=O)c1c(C)[nH]c(CCC(=O)NC(C)c2ccccc2)c1C` (centres undefined), inactive: -11.3%. Turning to `CCN(CC)CCCNc1sc(S(=O)(=O)c2ccccc2)nc1S(=O)(=O)c1ccc(Cl)cc1`, the “activation” value was inactive: -16.9%. The result for `COc1ccc(C)cc1NC(=O)NC(C)c1c(-n2cccc2)sc(C)c1C` (centres undefined) reads inactive: 1.01%; that for `CCN(C(=O)c1sc2nc3n(c(=O)c2c1C)CCCCC3)c1ccc(OC)cc1`, inactive: -2.23%; that for `CCOC(=O)c1cn(CC(=O)Nc2ccc(OC)cc2OC)nn1`, inactive: -10.3%. Under `CCOc1ccc(CCNC(=O)c2ccc3c(c2)N(Cc2ccc(C)cc2)CCS3)cc1` stands inactive: -13.5%; under `O=C(C1CCCN(S(=O)(=O)c2ccc(Br)s2)C1)N1CCN(c2ccccc2F)CC1` (centres undefined), inactive: -7.26%. Under `Fc1ccc(Nc2ncnc3onc(-c4ccc(Cl)cc4)c23)cc1Cl` stands inactive: -11.6%; under `Cc1c(C(=O)Nc2ccc(-n3c(C)nc4ccccc4c3=O)cc2)cccc1[N+](=O)[O-]`, inactive: -17.2%. On to `COc1ccc(C2C(C(=O)Nc3ccccc3)=C(C)Nc3nc(SCC(=O)c4ccc(C)cc4)nn32)cc1` (centres undefined), for which the “activation” value is inactive: -11.7%.

For `CC1=C(c2ccc(F)cc2)S(=O)(=O)N=C1N1CCC(C(=O)NCCc2ccccc2C)CC1`, the “activation” value was inactive: -26%.

Consider `CC(C)Cc1ccc(S(=O)(=O)N2CCN(Cc3noc(CCC(=O)N4CCCCC4)n3)CC2)cc1`, for which the “activation” value is inactive: -18.9%.

For the molecule `CCCC(=O)Nc1nnc(S(=O)(=O)N2CCCCCC2)s1`, the “activation” value was inactive: -12.2%.

Turning to `COC(=O)C(NC(=O)CCc1c(C)nc2c(-c3ccccc3)c(C)nn2c1C)C(C)C` (centres undefined), the “activation” value was inactive: -6.66%. Under `Cc1ccc(Cl)cc1NC(=O)Cn1c(=O)n(CCC(=O)NCc2ccc3c(c2)OCO3)c(=O)c2sccc21` stands inactive: -7.67%; under `Cc1cc2nn(-c3ccc(F)cc3)nc2cc1NC(=O)c1cccc2c(Cl)cccc12`, inactive: -20.8%; under `CCOc1cc2c(cc1OCC)C(CC(=O)O)N(C(=O)Nc1ccccc1C(F)(F)F)CC2` (centres undefined), inactive: -10.4%. The result for `Cc1cc(C)nc(-n2nc(C)c3c2NC(=O)CC3c2cccc(O)c2)n1` (centres undefined) reads inactive: -16.3%. The result for `COc1cc(OC)c(NC(=O)Nc2cccc(OCc3cc(=O)n4ccccc4n3)c2)cc1Cl` reads inactive: -9.44%; that for `COc1ccc(-n2cc(-c3ccccc3)c3c(Nc4ccc(OC)c(OC)c4)ncnc32)cc1`, inactive: -15.3%; that for `CCn1c(C)c(C)c2cc(C(=O)NCc3ccc(F)cc3)ccc21`, inactive: -11.9%. `CCOC(=O)c1ccc2c(c1)N(Cc1ccc(F)cc1Cl)C(=O)c1ccccc1S2(=O)=O`: the “activation” value was inactive: -8.91%. Under `Cc1ccc(CNC(=O)c2nc(SCc3ccccc3C)ncc2Cl)cc1` stands inactive: -14.2%; under `Cc1noc(-c2ccc(NC(C)c3ccccc3)c([N+](=O)[O-])c2)n1` (centres undefined), inactive: -15.2%. The result for `CCOC(=O)CC(=O)CSc1nc2ccsc2c(=O)n1Cc1ccccc1` reads inactive: -38.2%; that for `CCC(=O)N1CCc2cc(Br)cc(S(=O)(=O)N3CCN(c4ccccc4OC)CC3)c21`, inactive: -5.74%. Turning to `COc1ccccc1NC(=O)c1ccc(CN2C(=O)C(C)=C(c3ccc(C)c(C)c3)S2(=O)=O)cc1`, the “activation” value is inactive: -10.6%. The result for `CC1(c2ccccc2)CC(C)(C)N(C(=O)c2cccc(Cl)c2)c2ccccc21` (centres undefined) reads inactive: -7.06%. The result for `Cc1cc(C)cc(-n2c(SCC(=O)N3CCOCC3)nc3c([nH]c4ccccc43)c2=O)c1` reads inactive: -14.1%; that for `Cc1ccc(CCNS(=O)(=O)c2c(C)nc3sc(C)c(C)n3c2=O)cc1`, inactive: -12.8%. The result for `COc1cccc(-c2nnc(-c3ccccc3NC(=O)c3ccc(F)cc3F)o2)c1` reads inactive: -12.7%; that for `Cc1ccc(CNC(=O)c2ccc(CSCc3cccc(C)c3)o2)cc1`, inactive: 3.27%; that for `COc1cccc(NC(=O)c2ccc3c(c2)CCN3S(C)(=O)=O)c1`, inactive: -9.39%.

As to `CC1CCN(S(=O)(=O)c2ccc3c(c2)N(CC(=O)NCCc2ccccc2)C(=O)CO3)CC1`, the “activation” value is inactive: 0.692%. Consider `Cc1ccc(NS(=O)(=O)c2ccc3[nH]c4c(c3c2)CCCC4)cc1N(C)C`, for which the “activation” value was inactive: -1.85%. For the molecule `Cc1cccc(NC(=O)Cn2c(=O)nc(-c3ccccc3)c3ccccc32)c1C`, the “activation” value was inactive: -4.77%. In the case of `CCOc1ccc(N(CC(=O)NCc2ccc(C)cc2)S(=O)(=O)c2c(C)noc2C)cc1`, the “activation” value is inactive: -0.415%. The result for `O=C(c1ccc(CSc2nc3ccncc3n2Cc2cccc(F)c2)cc1)N1CCCCC1` reads inactive: -13.6%; that for `CCOC(=O)c1c(C)oc2ccc(N(C(=O)c3ccncc3)S(=O)(=O)c3ccc(Br)cc3)cc12`, inactive: -38%. Regarding `CC1=C(c2ccc(C(C)C)cc2)S(=O)(=O)NC1=NCc1ccccc1Br`, the “activation” value is inactive: -6.45%. Under `COc1cc(NC(=O)CN2C(=O)CN(C)C(=O)c3ccccc32)cc(OC)c1OC` stands inactive: -14.1%. The result for `COc1ccc(C)cc1NC(=O)C1CCCN(S(=O)(=O)c2ccc3[nH]c(=O)ccc3c2)C1` (centres undefined) reads inactive: -3.69%; that for `CCOc1cc2[nH]c(=O)n(CCCC(=O)N3CCN(c4ccc(OC)cc4)CC3)c(=O)c2cc1OCC`, inactive: -11.4%. Under `CCn1c2ccccc2c2cc(NC(=O)COc3cccc(C)c3)ccc21` stands inactive: -9.3%; under `CCOC(=O)c1c(C)[nH]c(C)c1S(=O)(=O)N1CCC(C(=O)Nc2ccc(C)cn2)CC1`, inactive: -7.8%. On to `CCOc1ccc(CCNC(=O)Cn2ncc3c(=O)oc4ccc(C)cc4c32)cc1`, for which the “activation” value is inactive: -7.96%. The result for `CNC(=O)C1CCC(Cn2c(=O)c3sccc3n(CC(=O)Nc3ccc(C)c(F)c3)c2=O)CC1` (centres undefined) reads inactive: -13.4%; that for `Cc1ccc(F)c(NC(=O)Nc2ccc3snnc3c2)c1`, inactive: -12.8%; that for `COc1ccc(OC)c(NS(=O)(=O)c2ccc3[nH]c4c(c3c2)CCCCC4)c1`, inactive: -36.3%. Under `CCCCN1CC(c2nc3ccccc3n2CCCCOc2ccc(C)c(C)c2)CC1=O` (centres undefined) stands inactive: -22.1%; under `O=C(NCCN1CCN(c2cccc(Cl)c2)CC1)C1COc2ccccc2C1` (centres undefined), inactive: -16.4%. Under `Cc1cccc(CNC(=O)Cn2ccc3cc(S(=O)(=O)N4CCCC4)ccc32)c1` stands inactive: -6.61%. For `CC(=O)N1CCCc2cc(S(=O)(=O)N(C)CC(=O)Nc3cccc(C)c3C)ccc21`, the “activation” value is inactive: -18.7%. The result for `CCOc1ccc(CCNC(=O)c2cn(CC)c3ccc(S(=O)(=O)N4CCCCCC4)cc3c2=O)cc1OCC` reads inactive: -8.76%; that for `O=C1c2[nH]nc(-c3ccccc3O)c2C(c2cccc(Cl)c2)N1Cc1cccnc1` (centres undefined), inactive: -9.79%; that for `COc1cc(C2C(C(=O)Nc3ccc(C)cc3C)=C(C)Nc3nc4ccccc4n32)cc(OC)c1OC` (centres undefined), inactive: -6.98%. Under `Cc1cccc(NC(=O)CS(=O)(=O)c2nc(-c3ccccc3)cn2-c2cccc(Cl)c2)c1C` stands inactive: -12.8%; under `Cc1ccc(S(=O)(=O)N(CCc2ccccc2)CC(=O)Nc2cc(C)ccc2C)cc1`, inactive: -15.9%. Under `CCOC(=O)c1cc(-c2ccc(C)cc2)n(CCC(=O)Nc2ccc(C(C)C)cc2)c1C` stands inactive: -6.43%; under `CN(C)S(=O)(=O)c1ccc(C(=O)NC2CC(=O)N(c3ccc4c(c3)OCCO4)C2)cc1` (centres undefined), inactive: -14.3%. Regarding `COc1cccc(N2CCN(C(=O)C3CCN(S(=O)(=O)c4c(C)noc4C)CC3)CC2)c1`, the “activation” value is inactive: -14.7%. The result for `COc1cccc(-c2nc(CS(=O)(=O)CC(=O)Nc3c(C)cc(C)cc3C)c(C)o2)c1` reads inactive: -22.4%; that for `O=C(NC1CC(=O)N(c2ccc(Cl)cc2)C1)c1ccc2c(c1)OCO2` (centres undefined), inactive: 0.469%. Regarding `CCOc1ccccc1NC(=O)c1nc2nc(C)cc(C(F)F)n2n1`, the “activation” value is inactive: -12.4%. The result for `Cc1cccc(NC(=O)Cn2nnc(C(=O)Nc3ccccc3Br)c2N)c1C` reads inactive: -4.89%.

Regarding `Cn1cc(C(=O)NCc2ccccc2)c(=O)c2cc(S(=O)(=O)N3CCOCC3)ccc21`, the “activation” value was inactive: -6.62%. The result for `Cc1cc(NC(=O)N(C)CCc2c(C)nn(C)c2C)ccc1Br` reads inactive: -2.83%; that for `Cc1ccc2c(=O)cc(C(=O)N(Cc3ccc(N(C)C)cc3)C3CCS(=O)(=O)C3)oc2c1` (centres undefined), inactive: -2.94%; that for `CCCN1CCN(CCCNC(=O)Cn2nc(CC)n3c(cc4occc43)c2=O)CC1`, inactive: 12.7%.

In the case of `N=c1n(CCN2CCCCC2)c2ccccc2n1CC(O)COc1ccc(Cl)cc1Cl` (centres undefined), the “activation” value is inactive: -18.2%. The result for `CSc1ccc(CCNC(=O)CN2C(=O)c3cccnc3Oc3ccc(C)cc32)cc1` reads inactive: -9.33%; that for `Cc1cc(F)ccc1NS(=O)(=O)c1c(C)nc2scc(C)n2c1=O`, inactive: -8.49%. The result for `CCc1cccc(C)c1NC(=O)CSc1nc2ccccc2nc1N1CCOCC1` reads inactive: -7.46%; that for `COc1ccc(Cn2c(SCc3ccc(C(=O)NCc4cccs4)cc3)nc3cccnc32)cc1`, inactive: -11.2%; that for `CC1(C)O[C@H]2[C@@H](O1)[C@@H](C(=O)Nc1ccc(F)c(F)c1)O[C@@H]1OC(C)(C)O[C@@H]12`, inactive: -19.5%. The result for `COc1ccc(CCNC(=O)c2ccc3c(c2)N(Cc2cccc(Cl)c2)C(=O)CS3)cc1OC` reads inactive: -0.288%; that for `CCOc1ccc(C(c2c(O)cc(C)n(CCOC)c2=O)N2CCC(C)CC2)cc1` (centres undefined), inactive: 8.85%.
